# Reference: PubChem BioAssay AID504832 (National Center for Advancing Translational Sciences (NCATS), 2011)
# Screen size: about 310,000 compounds; about 18,000 (5.8%) were called active. The call rests on the fitted dose curve; in most records, active means well fitted inhibition curve with a large enough effect; inconclusive means small, poorly fitted or top-dose-only effect, or another doubt; inactive means no such curve, though single readings can be large or run the other way. The inconclusive results got no clear call from the source. No potency is given beside an inconclusive call; the fits are too rough.
# Assay: Primary qHTS for delayed death inhibitors of the malarial parasite plastid, 48 hour incubation
# Details: P. falciparum luciferase growth in erythrocytes; series mostly up to 28.7 µM
# Procedure, shortened: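 Firefly luciferase activity from engineered P. falciparum reports growth; inhibitors lower the luminescent signal. Cultures contained 2% hematocrit erythrocytes at 0.1% final parasitemia.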
# Potency means the concentration at half of the fitted maximal effect; tags describe the fitted curve by direction and shape.
row,Compound,Potency
1,Cc1c(CC(=O)O)c(=O)oc2c(C)c3occ(-c4ccc(Br)cc4)c3cc12,"inconclusive [inhibitor, single point]"
